Four molecules from article PMC2384002 can be followed below.

Amino acid sequences for entries named in this document (tags omitted).
UniProt P41238: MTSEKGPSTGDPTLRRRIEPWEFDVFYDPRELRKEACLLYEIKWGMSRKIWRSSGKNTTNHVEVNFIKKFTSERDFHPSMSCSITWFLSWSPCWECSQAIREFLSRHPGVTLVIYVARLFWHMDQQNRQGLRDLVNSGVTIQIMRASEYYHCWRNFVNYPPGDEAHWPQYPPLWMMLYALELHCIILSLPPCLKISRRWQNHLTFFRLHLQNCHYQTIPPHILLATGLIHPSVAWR

Where two headings read alike, the source gives them in different places. No constants are given. Whether binding was seen depends on the method and setting. Binding seen in cells or lysates may run through a third protein. Some entries that bind do so weakly or less than the wild type. Tags and fused reporters may be left off the sequences shown.

What all share (assay): pull-down; purified GST-DND1 (or GST) incubated with 40 uL [35S]methionine-labeled in vitro translated protein (reticulocyte lysate) and Glutathione Sepharose 4B beads; beads washed, eluted at 95 C, NuPAGE-Mes gel; control beads only; treatment of the APOBEC3-GST-DND1 complexes with RNase or DNase for 1 h did not affect binding; only the target purified
The target in assay [1] is T1, GST-DND1α (mouse) (UniProt Q6VY05).
T1 sequence: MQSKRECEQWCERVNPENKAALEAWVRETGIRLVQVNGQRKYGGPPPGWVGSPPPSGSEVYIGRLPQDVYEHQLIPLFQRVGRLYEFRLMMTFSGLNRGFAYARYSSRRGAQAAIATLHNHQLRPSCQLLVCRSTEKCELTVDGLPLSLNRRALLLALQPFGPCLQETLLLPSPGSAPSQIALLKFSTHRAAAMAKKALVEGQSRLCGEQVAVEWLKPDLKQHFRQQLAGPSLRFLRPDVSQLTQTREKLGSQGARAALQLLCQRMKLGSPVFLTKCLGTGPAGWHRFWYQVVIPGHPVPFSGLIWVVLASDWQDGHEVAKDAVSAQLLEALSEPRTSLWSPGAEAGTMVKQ

Assay [2] has as its target T1, GST-DND1α (mouse). The source holds these as a separate data set.
Assay [3] concerns the target T2, GST-DND1β (mouse) (UniProt Q6VY05).
T2 sequence: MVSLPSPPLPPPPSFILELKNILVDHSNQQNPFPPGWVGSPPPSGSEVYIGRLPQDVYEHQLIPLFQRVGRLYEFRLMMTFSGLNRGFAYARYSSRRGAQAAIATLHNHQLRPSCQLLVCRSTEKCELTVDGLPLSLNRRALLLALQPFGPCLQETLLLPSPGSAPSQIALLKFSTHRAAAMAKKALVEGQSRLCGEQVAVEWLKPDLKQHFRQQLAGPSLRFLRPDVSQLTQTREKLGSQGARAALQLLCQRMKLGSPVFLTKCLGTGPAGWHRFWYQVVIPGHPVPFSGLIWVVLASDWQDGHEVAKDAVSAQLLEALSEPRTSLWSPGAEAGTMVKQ

As to “human APOBEC1, [35S]methionine-labeled, in vitro translated (from UniProt P41238 1-236)”, in assay [1], the binding result is listed as “binds weakly”.

B1: human ACF (APOBEC1 complementation factor), [35S]methionine-labeled, in vitro translated (protein, UniProt Q9NQ94 1-594)
chain: MESNHKSGDGLSGTQKEAALRALVQRTGYSLVQENGQRKYGGPPPGWDAAPPERGCEIFIGKLPRDLFEDELIPLCEKIGKIYEMRMMMDFNGNNRGYAFVTFSNKVEAKNAIKQLNNYEIRNGRLLGVCASVDNCRLFVGGIPKTKKREEILSEMKKVTEGVVDVIVYPSAADKTKNRGFAFVEYESHRAAAMARRKLLPGRIQLWGHGIAVDWAEPEVEVDEDTMSSVKILYVRNLMLSTSEEMIEKEFNNIKPGAVERVKKIRDYAFVHFSNREDAVEAMKALNGKVLDGSPIEVTLAKPVDKDSYVRYTRGTGGRGTMLQGEYTYSLGQVYDPTTTYLGAPVFYAPQTYAAIPSLHFPATKGHLSNRAIIRAPSVREIYMNVPVGAAGVRGLGGRGYLAYTGLGRGYQVKGDKREDKLYDILPGMELTPMNPVTLKPQGIKLAPQILEEICQKNNWGQPVYQLHSAIGQDQRQLFLYKITIPALASQNPAIHPFTPPKLSAFVDEAKTYAAEYTLQTLGIPTDGGDGTMATAAAAATAFPGYAVPNATAPVSAAQLKQAVTLGQDLAAYTTYEVYPTFAVTARGDGYGTF
modifications: [35S]methionine-labeled
Consider B1, for which the binding result in assay [2] is recorded as “no binding”.

B2: mouse APOBEC2, [35S]methionine-labeled, in vitro translated (protein, UniProt Q9WV35 1-224)
chain: MAQKEEAAEAAAPASQNGDDLENLEDPEKLKELIDLPPFEIVTGVRLPVNFFKFQFRNVEYSSGRNKTFLCYVVEVQSKGGQAQATQGYLEDEHAGAHAEEAFFNTILPAFDPALKYNVTWYVSSSPCAACADRILKTLSKTKNLRLLILVSRLFMWEEPEVQAALKKLKEAGCKLRIMKPQDFEYIWQNFVEQEEGESKAFEPWEDIQENFLYYEEKLADILK
modifications: [35S]methionine-labeled
On to B2, for which, in assay [2], the binding result is on record as “no binding”.

B3: mouse APOBEC3, 9-exon isoform, [35S]methionine-labeled, in vitro translated (protein, UniProt Q99J72 1-440)
chain: MQPQRLGPRAGMGPFCLGCSHRKCYSPIRNLISQETFKFHFKNLGYAKGRKDTFLCYEVTRKDCDSPVSLHHGVFKNKDNIHAEICFLYWFHDKVLKVLSPREEFKITWYMSWSPCFECAEQIVRFLATHHNLSLDIFSSRLYNVQDPETQQNLCRLVQEGAQVAAMDLYEFKKCWKKFVDNGGRRFRPWKRLLTNFRYQDSKLQEILRPCYISVPSSSSSTLSNICLTKGLPETRFWVEGRRMDPLSEEEFYSQFYNQRVKHLCYYHRMKPYLCYQLEQFNGQAPLKGCLLSEKGKQHAEILFLDKIRSMELSQVTITCYLTWSPCPNCAWQLAAFKRDRPDLILHIYTSRLYFHWKRPFQKGLCSLWQSGILVDVMDLPQFTDCWTNFVNPKRPFWPWKGLEIISRRTQRRLRRIKESWGLQDLVNDFGNLQLGPPMS
modifications: [35S]methionine-labeled
B3: the binding entry in assay [3] and in assay [2] was “binds” throughout.
